The record followed here is paper PMC4336329 (PLoS ONE, 2015).

SMILES strings stand for the structures. Screen size: about 310,000 compounds; about 14,000 (4.5%) showed an effect of 50% or more. The effect is printed as a negative number. The list shows a part of the results.
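Also: peak tail current of the secondary pulse compared with the same well before compound.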

The target of the assay is human ether-à-go-go-related gene (hERG) potassium channel (human, UniProt Q12809). The assay can be described thus: primary screen, population patch clamp on CHO cells stably expressing hERG.
Chain of human ether-à-go-go-related gene (hERG) potassium channel (Q12809 whole entry, looked up): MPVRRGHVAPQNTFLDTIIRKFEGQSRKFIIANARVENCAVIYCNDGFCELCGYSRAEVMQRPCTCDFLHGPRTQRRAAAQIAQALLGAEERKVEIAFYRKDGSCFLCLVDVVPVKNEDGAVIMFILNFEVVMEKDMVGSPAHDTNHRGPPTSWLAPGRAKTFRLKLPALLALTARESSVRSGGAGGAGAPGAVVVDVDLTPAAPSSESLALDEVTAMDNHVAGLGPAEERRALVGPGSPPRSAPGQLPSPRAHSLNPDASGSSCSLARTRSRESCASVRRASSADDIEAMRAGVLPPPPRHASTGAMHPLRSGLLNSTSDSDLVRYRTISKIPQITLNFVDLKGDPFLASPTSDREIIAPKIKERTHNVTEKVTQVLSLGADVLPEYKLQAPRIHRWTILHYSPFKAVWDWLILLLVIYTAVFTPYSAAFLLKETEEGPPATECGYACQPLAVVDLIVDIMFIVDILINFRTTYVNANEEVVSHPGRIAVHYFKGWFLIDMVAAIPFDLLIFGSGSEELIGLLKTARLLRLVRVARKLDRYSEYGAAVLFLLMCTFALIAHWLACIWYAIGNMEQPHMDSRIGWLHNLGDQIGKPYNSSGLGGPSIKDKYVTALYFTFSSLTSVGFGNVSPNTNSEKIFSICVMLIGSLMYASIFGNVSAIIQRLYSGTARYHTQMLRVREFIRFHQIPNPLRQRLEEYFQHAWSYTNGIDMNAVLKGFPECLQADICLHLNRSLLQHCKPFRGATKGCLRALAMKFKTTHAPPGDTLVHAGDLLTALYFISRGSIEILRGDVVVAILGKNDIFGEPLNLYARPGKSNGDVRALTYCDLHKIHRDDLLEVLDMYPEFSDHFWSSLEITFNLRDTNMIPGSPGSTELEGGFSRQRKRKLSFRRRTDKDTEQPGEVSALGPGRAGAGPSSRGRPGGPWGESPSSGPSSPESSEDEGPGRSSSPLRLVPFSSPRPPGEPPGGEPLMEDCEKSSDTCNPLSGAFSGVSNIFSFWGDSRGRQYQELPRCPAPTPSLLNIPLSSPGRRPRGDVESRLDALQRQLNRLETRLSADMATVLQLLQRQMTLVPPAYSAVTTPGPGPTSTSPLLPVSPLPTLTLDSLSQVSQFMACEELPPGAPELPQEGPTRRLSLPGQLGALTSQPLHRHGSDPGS
In the case of `CCC(=O)N1CCc2cc(Br)cc(S(=O)(=O)N3CCCC(C(=O)O)C3)c21` (centres unmarked), the “hERG current change (%, negative = inhibition) at 10uM” value is reported as 7.41%. Under `O=C(O)CCc1ccc(-c2ccc(Br)cc2)n1CC(=O)O` stands 4.99%; under `COc1ccc(Cl)c(OC)c1C(=O)NC(=O)Nc1c(F)cc(F)cc1F`, 1.14%. Under `COc1ccc(-[n+]2c(-c3ccccc3)cc(-c3ccccc3)cc2-c2ccccc2)cc1.[O-][Cl+3]([O-])([O-])[O-]` stands -71.9%.

Consider `CCN(C(=O)c1c(OC)cccc1OC)c1nnc(-c2cccnc2)s1`, for which the “hERG current change (%, negative = inhibition) at 10uM” value was -4%. Under `CCOC(=O)c1c(NC(=O)COc2cccc3c2CCN(Cc2ccc(F)cc2)C3=O)sc2c1CCC2` stands 8.25%; under `CCN(Cc1ccncc1)C(=O)CC1C(=O)NCCN1Cc1ccc(F)c(F)c1` (centres unmarked), -3.02%; under `Cc1ncc(S(=O)(=O)C(C)(C)C)c(N)n1`, 2.37%. Under `CC(=O)c1ccc(N2CCN(C(=O)Cc3n[nH]c(=O)c4ccccc34)CC2)cc1` stands -7%. Under `CCCCCCCc1nn2c(=O)cc(O)nc2s1` stands -7.31%; under `O=C(NNc1ccc([N+](=O)[O-])cc1[N+](=O)[O-])C1C2CCCCC21` (centres unmarked), -21%. In the case of `COc1ccc2c(C(=O)c3ccc(C)cc3)n(Cc3ccc(C(N)=O)cc3)[n+]([O-])c2c1`, the “hERG current change (%, negative = inhibition) at 10uM” value is given as -12.5%. Under `COc1ccc(N2CCN(C(=O)c3cc4c(s3)-c3ccccc3S(=O)(=O)C4)CC2)cc1` stands -8.01%. Under `O=C(NCc1csc(-c2cccs2)n1)C1CCC1` stands 1.46%. Under `COC(=O)CSc1nnc(CNS(=O)(=O)c2ccc(Cl)cc2)n1C` stands 9.68%; under `Cl.OC1(c2cccc(C(F)(F)F)c2)CCNCC1`, 8.53%. With `Cl.NCCc1ccc(O)c(O)c1`, the “hERG current change (%, negative = inhibition) at 10uM” value is 17.8%. Under `Cc1oc(C(C)(C)C)cc1C(=O)Nc1cccc(/C=C\C(=O)O)c1` stands 10.3%.

Regarding `COc1ccc(C2c3[nH]c4ccccc4c3C[C@H]3C(=O)N(c4ccccc4C(=O)N4CCC[C@H]4C(=O)O)C(=O)N23)cc1` (some centres unmarked), the “hERG current change (%, negative = inhibition) at 10uM” value was 3.11%. Under `O=C(Nc1cccc(S(=O)(=O)C(F)F)c1)c1ccc(Cl)c(S(=O)(=O)N2CCOCC2)c1` stands -2.49%.

For `CCOc1ccccc1N1CCN(CC(=O)Nc2ccnn2C2CCCC2)CC1`, the “hERG current change (%, negative = inhibition) at 10uM” value is given as -19.2%. Under `COc1cccc(CNc2ncnc3cc(OC)c(OC)cc23)c1` stands -11.6%. Under `CCOC(=O)C1CCCN(C(=O)C2CCN(S(=O)(=O)c3c(C)noc3/C=C/c3ccccc3F)CC2)C1` (centres unmarked) stands 20.5%; under `O=C(O)CSc1nnnn1C1CCCCC1`, 11.1%; under `COC(=O)c1cn[nH]c1NC(=S)Nc1ccccc1C`, -6.08%. Under `CC1=CC(C)(C)Nc2ccc(OC(=O)C(Cc3ccccc3)N3C(=O)c4ccccc4C3=O)cc21` (centres unmarked) stands 10.3%; under `CCCCC(=O)Nc1cc(OCC)c(NC(=O)c2ccccc2[N+](=O)[O-])cc1OCC`, -4.27%; under `CCc1sc(C(=O)N2CCc3ccccc32)cc1C`, -0.57%.

Turning to `COc1ccc(CCNC(=O)CN(CCc2ccccc2)S(C)(=O)=O)cc1`, the “hERG current change (%, negative = inhibition) at 10uM” value is listed as 12.1%. Under `CCSc1ccccc1C(=O)NCc1cccnc1` stands 3.93%; under `N#Cc1ccc(CN2CCN(C(=O)c3cc(Cl)c4c(c3)OCCO4)CC2)cc1`, -67.7%; under `Cc1ccc2ncnc(Nc3ccccc3)c2c1`, 2.81%. Under `O=[N+]([O-])c1nn(-c2ccccc2)n(O)c1=NC1CCN(Cc2ccccc2)CC1` stands -58.1%.

For `O=C(NC1CC2CCC(C1)N2Cc1ccccc1)c1ccccc1Cl` (centres unmarked), the “hERG current change (%, negative = inhibition) at 10uM” value is listed as -40.6%. Under `COc1cc(NC(=O)C2CCCCC2)c(OC)cc1NC(=O)c1ccco1` stands -3.74%.

In the case of `CC(=O)N1CCN(c2ccc(NCc3ccc4c(c3)OCO4)cc2)CC1`, the “hERG current change (%, negative = inhibition) at 10uM” value came to 3.35%. Under `Cc1ccc(C2C(C(=O)c3cccs3)=C(O)C(=O)N2c2cccc(C)n2)cc1` (centres unmarked) stands 2.55%; under `COCCNC(=O)C(C)OC(=O)c1cc2sccc2n1C` (centres unmarked), 4.91%; under `CC1CN(S(=O)(=O)c2ccc(F)cc2)C(C)N1C(=O)N1CCOCC1` (centres unmarked), 15.6%. Under `CC1CN(C(=O)c2ccccc2NS(=O)(=O)c2cccc([N+](=O)[O-])c2)CC(C)O1` (centres unmarked) stands 22.7%.

Take `Nc1cccc2c1C(=O)N(C(=O)c1ccco1)C2=O`: the “hERG current change (%, negative = inhibition) at 10uM” value is listed as -0.182%. Under `O=C(CSc1ccccc1)Nc1cc(Cl)ccc1Oc1ccccc1` stands -9.05%; under `CCOC(=O)C1=C(CC)OC(N)=C(C#N)C1c1ccc(NC(C)=O)cc1` (centres unmarked), -3.95%.

Turning to `CCN=C1S/C(=C/c2ccc(-c3ccc(F)cc3)o2)C(=O)N1CC`, the “hERG current change (%, negative = inhibition) at 10uM” value turned out to be 26.3%.
